Experimental data as given in patent US20040115790A1, “Method for production of secreted proteins in fungi” (priority 2001, published 2004).

What follows are compounds tested on T. reesei Rut-C30 (assay: Northern analysis of transcript levels in treated T. reesei cultures). Conditions: mRNA normalised with gpd; 5 μM A23187, 50 μg/ml BFA or 10 mM DTT.
Experimental: The Trichoderma strains and cultivation conditions have been essentially described elsewhere (Pakula et al. 2000; Ilmén et al 1996). T. reesei strain Rut-C30 (Montenecourt & Eveleigh, 1979) was cultivated on minimal medium ((H4)2SO4 7.6 g l^−1, KH2PO4 15.0 g l^−1, MgSO4.7H2O 0.5 g l^−1, CaCl2.H2O 0.2 g l^−1, CoCl2 3.7 mg l^−1, FeSO4.7H2O 5 mg l^−1, ZnSO4.7H2O 1.4 mg l^−1, MnSO4.7H2O 1.6 mg l^−1, pH adjusted to 5.2 with KOH) that contained lactose 20 g l^−1 as a carbon source. Spore suspension with 2×10^7 spores (stored in −80° C. in 20% glycerol) was inoculated into 200 ml of the medium, grown in shake flasks at 28° C. with shaking at 210 rpm. After 4 days of cultivation the cultures were diluted 1/10 into fresh medium, grown further for 24 h, and treated either with 10 mM dithiothreitol (DTT), 50 μg/ml brefeldin A (BFA) or 5 μM Ca^2+-ionophore A23187. A corresponding volume of the solvent of the stock solution was added into the untreated control cultures (0.2% and 0.5% DMSO for the control cultures for A23187 and BFA treatment, respectively, and double distilled water for the control for DTT treatment). The cultures were divided into aliquots for metabolic labelling of the proteins and for RNA isolation at different time points.
For the Northern analysis mycelial samples were collected from cultures treated with DTT, BFA or A23187 and from the untreated control cultures after 0, 15, 30, 60, 90, 120, 240 and 360 minutes of the treatment. The first sample (the time point 0 min was withdrawn immediately before addition of DTT, BFA or A23187). The mycelium was filtered, washed with equal volume of 0.7% NaCl, frozen immediately in liquid nitrogen, and stored at −80° C. Total RNA was isolated using the Trizol™ Reagent (Gibco BRL) essentially according to manufacturer's instructions. Northern blotting and hybridisation was carried out according to standard procedures (Sambrook et al). Full-length cDNA of the genes were used as probes. […]

**Q.** Which “Induction of pdi1 and bip1 genes (UPR)” value does the source give for `O[C@H](CS)[C@H](O)CS` (racemic) [DTT, dithiothreitol] here?
**A.** Its value is “induction of pdi1 and bip1 genes”.

**Q.** Which “Induction of pdi1 and bip1 genes (UPR)” value does the source give for `CNc1ccc2oc(C[C@H]3O[C@@]4(CC[C@H]3C)O[C@H]([C@H](C)C(=O)c3ccc[nH]3)[C@H](C)C[C@H]4C)nc2c1C(=O)O` [A23187] here?
**A.** The value was “no induction”.

**Q.** Which “Induction of pdi1 and bip1 genes (UPR)” value does the source give for `C[C@H]1CCC/C=C/[C@@H]2C[C@H](O)C[C@H]2[C@H](O)/C=C/C(=O)O1` [BFA, brefeldin A] here?
**A.** Its value is “induction of pdi1 and bip1 genes”.
